Measurements: publication PMC6863780, “Beyond a Ribosomal RNA Methyltransferase, the Wider Role of MraW in DNA Methylation, Motility and Colonization in Escherichia coli O157:H7” (Frontiers in Microbiology, 2019)

Molecular target: T1, MraW (Escherichia coli, UniProt P60391)
T1 construct: gene rsmH
Assay: colorimetric ELISA-type DNMT activity kit (EpiQuik, anti-5-methylcytosine antibody)
Assay type: biochemical
Details: 5-aza 10 μM; kit DNMT substrate

T1 sequence (P60391 whole entry, looked up): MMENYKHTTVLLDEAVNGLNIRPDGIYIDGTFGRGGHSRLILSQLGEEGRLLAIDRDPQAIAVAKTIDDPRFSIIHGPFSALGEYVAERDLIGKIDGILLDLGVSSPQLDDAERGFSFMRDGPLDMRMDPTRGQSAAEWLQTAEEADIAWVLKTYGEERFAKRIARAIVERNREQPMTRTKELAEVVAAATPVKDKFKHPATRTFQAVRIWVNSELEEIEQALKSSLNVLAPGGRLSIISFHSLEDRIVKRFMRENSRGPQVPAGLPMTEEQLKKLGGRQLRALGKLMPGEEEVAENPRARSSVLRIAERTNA

Nc1ncn([C@H]2C[C@H](O)[C@@H](CO)O2)c(=O)n1 [5-aza-2′-deoxycytidine]
DNMT activity (repressed by 5-aza): The DNMT activity of MraW was repressed by 5-aza (Figure 3C).
